Measurements as given in PubChem BioAssay (Tox21).
This list was built around the results that the source calls inconclusive (neither active nor inactive); the mix of calls is not that of the screen. Where the call is inconclusive, the potency comes from a doubtful curve fit. Calls of active or inactive are those of the source. Unless noted, calls come from the whole dose curve; as a rule, active = well fitted curve in the direction sought with a large enough effect in the repeat runs; inconclusive = weak or mixed curves; inactive = no such curve, though single readings can be large; an effect the other way counts as inactive or inconclusive.

Tests used:
[1] = qHTS assay to identify small molecule antagonists of the peroxisome proliferator-activated receptor delta (PPARd) signaling pathway - cell viability counter screen (AID 743213); details: PPARd-bla HEK293H viability, CellTiter-Glo luminescence, 17 h; viability change, negative = cytotoxic: at 62 µM (top of the series) unless noted; note: nearly all actives have a fitted effect of over 50% in size
Method in brief: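 HEK293H cells with the PPARd UAS-bla reporter, co-treated 17 h at 37 C with compounds and L165041 (300 nM final), were lysed with CellTiter-Glo. Luminescence indicated viable cell content.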

[2] = biological target: Peroxisome proliferator-activated receptor delta (Homo sapiens) (UniProt Q03181); assay: qHTS assay to identify small molecule antagonists of the peroxisome proliferator-activated receptor delta (PPARd) signaling pathway (AID 743215; active = well fitted inhibition curve with a large enough effect in the signal ratio in the repeat runs, not every such curve was filed as active; inconclusive = weak or mixed curves, or effect the other way; inactive = no such curve, though single readings can be large or run the other way; the % refers to the signal ratio;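 note: cells stimulated with agonist L165041 at 300 nM final during compound exposure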; for ratio activity, negative = inhibition: % is set by controls: 0 for no effect and ±100 for the full control effect); details: HEK293H PPARd-UAS-bla, beta-lactamase FRET ratio, antagonist, 17 h; ratio activity, negative = inhibition: at 62 µM (top of the series) unless noted
Method in brief: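 Fluorescence from cleaved LiveBLAzer B/G FRET substrate (2 h, room temperature) reports PPARd-driven beta-lactamase in HEK293H UAS-bla cells. Cells had been treated 17 h at 37 C with compound plus 300 nM final L165041.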

[3] = qHTS assay to identify small molecule agonists of the farnesoid-X-receptor (FXR) signaling pathway - cell viability counter screen (AID 743218); details: FXR-bla HEK293T viability, CellTiter-Glo luminescence, 16 h; viability change, negative = cytotoxic: at 62.6 µM (top of the series) unless noted; note: nearly all actives have a fitted effect of over 45% in size; for viability change, negative = cytotoxic: % is set by controls: 0 for no effect and ±100 for the full control effect
Method in brief: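 Readout: CellTiter-Glo luminescence, 30 min RT, multiplexed after the FXR-bla FRET reading. HEK 293T FXR-UAS-bla cells received compound 5 h post-plating and were incubated 16 h at 37 C.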

[4] = qHTS assay to identify small molecule agonists of the vitamin D receptor (VDR) signaling pathway - cell viability counter screen (AID 743224); details: VDR-bla HEK293T viability, CellTiter-Glo luminescence, 16 h; activity change, negative = cytotoxicity: at 62.6 µM (top of the series); note: nearly all actives have a fitted effect of over 50% in size
Method in brief: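 In parallel with the bla FRET readout, cytotoxicity toward VDR-bla cells after 16 h compound exposure was assessed by CellTiter-Glo, with luminescence recorded after a 30 min room-temperature incubation.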

[5] = qHTS assay to identify small molecule agonists of the endoplasmic reticulum stress response signaling pathway (AID 1159516; active = well fitted activation curve with a large enough effect in the signal ratio in the repeat runs, not every such curve was filed as active; inconclusive = weak or mixed curves, or effect the other way; the % refers to the signal ratio; for activation: % is set by controls: 0 for no effect and ±100 for the full control effect); details: ESRE-bla HeLa, ER stress beta-lactamase reporter, 5 h; activation: at 61 µM (top of the series) unless noted
Method in brief: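 Beta-lactamase expression from the ER stress response element in HeLa reporter cells is quantified with the LiveBLAzer B/G FRET substrate, read at 405 nm excitation after 2 hr at room temperature, following 5 hr compound treatment at 37 C.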

[6] = biological target: Nuclear receptor ROR-gamma (Homo sapiens) (UniProt P51449); assay: qHTS assay to identify small molecule antagonists of the retinoid-related orphan receptor gamma (ROR-gamma) signaling pathway (AID 1159521; note: nearly all actives have a fitted effect of over 50% in size)
Method in brief: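 Luminescence readout (ONE-Glo, 30 min RT) after 16 h doxycycline induction; loss of signal scored as antagonism. CHO cells with TET-inducible RORγ and RORE-LUC reporter; compounds added 2 h before 1 uM final doxycycline.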

[7] = qHTS assay to identify small molecule agonists of the AP-1 signaling pathway (AID 1159526; calls by dose curve; for activation: % is set by controls: 0 for no effect and ±100 for the full control effect); details: ME-180 (cervical carcinoma) AP-1-bla reporter, beta-lactamase FRET ratio, 5 h; activation: at 76.8 µM (top of the series) unless noted
[8] = biological target: Peroxisome proliferator-activated receptor delta (Homo sapiens) (UniProt Q03181); assay: qHTS assay to identify small molecule agonists of the peroxisome proliferator-activated receptor delta (PPARd) signaling pathway (AID 743212; calls by dose curve); details: HEK293H PPARd-UAS-bla, beta-lactamase FRET ratio, 17 h; activation: at 62.6 µM (top of the series) unless noted
Method in brief: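 Tox21 library screened in GeneBLAzer PPARd UAS-bla HEK293H cells. After compound treatment at 37 C, a FRET-based beta-lactamase substrate was applied for 2 h and fluorescence recorded.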

[9] = biological target: Retinoic acid receptor RXR-alpha (Homo sapiens) (UniProt P19793); assay: qHTS assay to identify small molecule agonists of the RXR signaling pathway (AID 1159527; calls by dose curve; note: nearly all actives have a fitted effect of over 35% in size); details: HEK293T RXRa-UAS-bla, beta-lactamase ratio, 16 h; activation: at 76.8 µM (top of the series) unless noted
Method in brief: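 Agonist mode; 9-cis retinoic acid positive control. HEK 293T UAS-bla reporter cells, 2% charcoal-stripped FBS, 16 hr compound exposure at 37 C/5% CO2. LiveBLAzer B/G FRET substrate 2 hr RT; ex 405, em 460/530 nm.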

[10] = qHTS assay to identify small molecule agonists of the RXR signaling pathway - cell viability counter screen (AID 1159529); note: nearly all actives have a fitted effect of over 50% in size
Method in brief: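 Luminescence from CellTiter-Glo (30 min, RT) measured viability in the same wells as the beta-lactamase reporter readout. Cells: GeneBLAzer RXR-alpha HEK 293T, 2% charcoal-stripped FBS. Compound exposure 16 hr, 37 C.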
Potency is the fitted concentration of half-maximal effect; tags give direction and shape of the fitted curve or compound fluorescence and quenching.

Sequence of UniProt Q03181 (Q03181 whole entry, looked up): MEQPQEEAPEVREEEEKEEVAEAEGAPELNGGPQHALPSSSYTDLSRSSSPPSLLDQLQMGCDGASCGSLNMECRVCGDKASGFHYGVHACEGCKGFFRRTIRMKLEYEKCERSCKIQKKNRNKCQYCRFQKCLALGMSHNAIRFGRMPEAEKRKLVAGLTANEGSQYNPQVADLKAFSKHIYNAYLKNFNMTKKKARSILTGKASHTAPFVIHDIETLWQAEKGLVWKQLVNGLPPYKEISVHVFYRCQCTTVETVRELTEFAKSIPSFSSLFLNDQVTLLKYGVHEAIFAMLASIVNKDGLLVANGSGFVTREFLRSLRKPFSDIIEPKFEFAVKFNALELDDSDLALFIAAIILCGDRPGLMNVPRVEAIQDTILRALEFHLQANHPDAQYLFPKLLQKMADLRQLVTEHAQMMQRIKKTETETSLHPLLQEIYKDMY
Sequence of UniProt P19793 (P19793 whole entry, looked up): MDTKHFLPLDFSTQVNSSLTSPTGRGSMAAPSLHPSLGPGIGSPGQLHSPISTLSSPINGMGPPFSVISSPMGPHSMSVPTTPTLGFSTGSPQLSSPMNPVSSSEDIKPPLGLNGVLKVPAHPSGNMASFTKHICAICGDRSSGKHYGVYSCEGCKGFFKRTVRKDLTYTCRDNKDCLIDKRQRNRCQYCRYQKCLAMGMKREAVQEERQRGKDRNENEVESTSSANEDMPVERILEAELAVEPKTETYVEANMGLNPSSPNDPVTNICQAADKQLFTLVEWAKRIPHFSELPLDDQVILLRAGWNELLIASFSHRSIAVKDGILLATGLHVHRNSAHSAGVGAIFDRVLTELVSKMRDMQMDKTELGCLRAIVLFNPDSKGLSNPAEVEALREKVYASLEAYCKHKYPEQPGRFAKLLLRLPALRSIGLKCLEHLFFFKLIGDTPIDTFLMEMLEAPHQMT

Row | SMILES | Potency [1] | Potency [2] | Potency [3] | Potency [4] | Potency [5] | Potency [6] | Potency [7] | Potency [8] | Potency [9] | Potency [10] | activation [7]
1 | COS(=O)(=O)C(F)(F)F | inconclusive: 57.4 µM [cytotoxic, single point] | inconclusive: 64.4 µM [single point] | inactive | inconclusive: 57.4 µM [cytotoxic, single point] | inactive | inconclusive: 80.4 µM [inhibitor, single point] | inconclusive: 64.4 µM [falling, partial curve, poor fit] |  |  |  | 
2 | CCCCCC=CCC=CCCCCCCCC(=O)OCC | inconclusive: 6.68 µM [cytotoxic, full curve, poor fit] |  |  |  | inactive | inconclusive: 0.266 µM [inhibitor, single point] |  | inconclusive: 33.5 µM | inconclusive: 15.1 µM [rising, partial curve] | inconclusive: 23.9 µM [cytotoxic] | 
3 | O=C(Oc1ccccc1)c1ccccc1C(=O)Oc1ccccc1 | inconclusive: 27.5 µM [cytotoxic, partial curve] |  |  |  | inconclusive: 19.5 µM [falling, partial curve, poor fit] | inconclusive: 68.6 µM [inhibitor, single point] |  |  | inconclusive: 4.36 µM [inhibitor, full curve] |  | 
4 | Cc1cccc(N(C)C(=S)Oc2ccc3c(c2)C2CCC3C2)c1 (stereo not given) | inconclusive: 33.5 µM [cytotoxic, partial curve, poor fit] | inactive | inconclusive: 0.15 µM [rising, partial curve, poor fit] |  | inconclusive: 26.8 µM [falling, single point] | inconclusive: 33.5 µM [inhibitor, single point] |  |  | inconclusive: 6.01 µM [rising, partial curve, poor fit] | inconclusive: 3.79 µM [cytotoxic, full curve] | inconclusive: 9.74% [at 35.3 µM]
